From patent publication US20140271675A1 (Eli Lilly, published 2014)

Key:
cynomolgus VEGFR1 = biological target: T1, cynomolgus VEGFR1 (Cynomolgus, UniProt A0A2K5VAF2 27-758); experiment: SPR (Biacore), 37 C, n=3
T1 construct: also called VEGFR1 Cynomolgus

[1] = biological target: T2, human VEGFR1 (SPR analyte/ligand) (human, UniProt P17948 27-758, limits assumed); experiment: SPR (Biacore), 37 C, n=3
T2 construct: also called VEGFR1 Human; Flt-1

[2] = biological target: T2, human VEGFR1 (SPR analyte/ligand); experiment: SPR (Biacore), 25 C, n=6
T2 sequence (P17948 27-758 limits assumed): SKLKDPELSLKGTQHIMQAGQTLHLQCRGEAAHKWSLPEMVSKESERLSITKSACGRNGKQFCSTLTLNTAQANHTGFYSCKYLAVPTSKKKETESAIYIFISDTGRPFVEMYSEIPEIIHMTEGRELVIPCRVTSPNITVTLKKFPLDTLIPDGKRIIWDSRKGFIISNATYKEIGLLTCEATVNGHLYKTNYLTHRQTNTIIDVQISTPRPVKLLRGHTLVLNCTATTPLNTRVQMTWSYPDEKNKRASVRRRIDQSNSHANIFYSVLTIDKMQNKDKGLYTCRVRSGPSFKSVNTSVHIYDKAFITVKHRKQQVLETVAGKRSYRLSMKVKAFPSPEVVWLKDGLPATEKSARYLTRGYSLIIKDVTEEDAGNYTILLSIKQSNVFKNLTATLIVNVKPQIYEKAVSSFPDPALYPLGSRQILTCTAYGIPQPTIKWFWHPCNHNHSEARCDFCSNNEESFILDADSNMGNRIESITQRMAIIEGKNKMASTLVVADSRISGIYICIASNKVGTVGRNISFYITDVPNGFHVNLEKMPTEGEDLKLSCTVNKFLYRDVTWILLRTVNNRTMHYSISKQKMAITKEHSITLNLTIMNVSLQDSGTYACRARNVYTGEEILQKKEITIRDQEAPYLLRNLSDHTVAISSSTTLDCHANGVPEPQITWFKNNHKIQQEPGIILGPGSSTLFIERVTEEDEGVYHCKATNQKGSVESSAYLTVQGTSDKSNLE

[3] = biological target: T3, hVEGFR1-Fc (R&D 321-fl 050/cf) (human, UniProt P17948 27-758); experiment: competition ELISA, coated hVEGFR1-Fc, competitor biotinylated hVEGFA-165 2 nM (Table 4b experiment)
T3 construct: Bought reagent; also called human sFlt1 (R&D 321-FL/CF); sFlt1; not shown: Fc portion of the bought fusion protein

human VEGFR3 = biological target: T4, human VEGFR3 (Human, UniProt P35916 25-776, limits assumed); experiment: SPR (Biacore), 25 C
T4 construct: also called VEGFR3 Human
T4 sequence (looked up): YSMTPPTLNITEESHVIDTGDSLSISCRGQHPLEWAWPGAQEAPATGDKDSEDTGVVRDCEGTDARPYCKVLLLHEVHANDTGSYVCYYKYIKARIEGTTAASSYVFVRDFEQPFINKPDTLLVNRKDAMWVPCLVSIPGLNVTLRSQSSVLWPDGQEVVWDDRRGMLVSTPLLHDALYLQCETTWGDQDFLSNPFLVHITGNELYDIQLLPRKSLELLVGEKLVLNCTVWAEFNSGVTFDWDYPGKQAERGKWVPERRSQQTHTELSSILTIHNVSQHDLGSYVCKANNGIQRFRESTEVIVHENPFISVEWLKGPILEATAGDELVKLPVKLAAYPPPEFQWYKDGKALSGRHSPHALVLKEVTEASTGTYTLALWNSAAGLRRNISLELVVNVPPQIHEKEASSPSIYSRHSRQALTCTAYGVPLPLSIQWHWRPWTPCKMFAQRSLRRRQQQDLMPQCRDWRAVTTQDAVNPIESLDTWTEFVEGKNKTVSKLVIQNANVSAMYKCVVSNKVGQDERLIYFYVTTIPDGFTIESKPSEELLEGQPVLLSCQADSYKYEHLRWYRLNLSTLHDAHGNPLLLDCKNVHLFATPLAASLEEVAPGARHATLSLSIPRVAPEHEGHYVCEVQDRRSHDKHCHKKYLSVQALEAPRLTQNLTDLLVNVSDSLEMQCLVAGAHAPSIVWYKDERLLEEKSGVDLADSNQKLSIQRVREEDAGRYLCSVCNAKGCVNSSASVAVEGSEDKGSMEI

mouse VEGFR1 = biological target: T5, mouse VEGFR1 (Mouse, UniProt P35969 23-759, limits assumed); experiment: SPR (Biacore), 25 C
T5 construct: also called VEGFR1 Mouse
T5 sequence (looked up): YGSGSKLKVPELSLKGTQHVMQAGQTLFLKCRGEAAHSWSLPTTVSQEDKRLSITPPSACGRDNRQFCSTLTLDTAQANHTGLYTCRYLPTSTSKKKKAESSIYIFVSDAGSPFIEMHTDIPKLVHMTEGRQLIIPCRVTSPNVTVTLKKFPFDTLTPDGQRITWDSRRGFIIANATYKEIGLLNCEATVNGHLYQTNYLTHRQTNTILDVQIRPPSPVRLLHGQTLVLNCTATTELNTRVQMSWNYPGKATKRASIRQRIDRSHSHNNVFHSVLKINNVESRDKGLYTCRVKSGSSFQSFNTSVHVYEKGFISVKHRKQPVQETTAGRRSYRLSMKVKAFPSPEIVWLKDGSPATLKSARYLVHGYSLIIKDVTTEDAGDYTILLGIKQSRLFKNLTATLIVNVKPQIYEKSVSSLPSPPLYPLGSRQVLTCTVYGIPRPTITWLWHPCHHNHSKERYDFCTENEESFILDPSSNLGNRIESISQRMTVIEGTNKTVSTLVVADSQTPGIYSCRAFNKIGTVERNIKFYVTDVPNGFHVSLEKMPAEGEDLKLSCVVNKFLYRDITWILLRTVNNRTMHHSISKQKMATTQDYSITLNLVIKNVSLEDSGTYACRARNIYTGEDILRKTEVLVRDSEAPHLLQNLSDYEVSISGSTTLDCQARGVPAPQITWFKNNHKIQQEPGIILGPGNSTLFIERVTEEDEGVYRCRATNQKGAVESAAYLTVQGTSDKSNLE

mouse VEGFR3 = biological target: T6, mouse VEGFR3 (Mouse, UniProt P35917 25-775, limits assumed); experiment: SPR (Biacore), 25 C
T6 construct: also called VEGFR3 Mouse
T6 sequence (looked up): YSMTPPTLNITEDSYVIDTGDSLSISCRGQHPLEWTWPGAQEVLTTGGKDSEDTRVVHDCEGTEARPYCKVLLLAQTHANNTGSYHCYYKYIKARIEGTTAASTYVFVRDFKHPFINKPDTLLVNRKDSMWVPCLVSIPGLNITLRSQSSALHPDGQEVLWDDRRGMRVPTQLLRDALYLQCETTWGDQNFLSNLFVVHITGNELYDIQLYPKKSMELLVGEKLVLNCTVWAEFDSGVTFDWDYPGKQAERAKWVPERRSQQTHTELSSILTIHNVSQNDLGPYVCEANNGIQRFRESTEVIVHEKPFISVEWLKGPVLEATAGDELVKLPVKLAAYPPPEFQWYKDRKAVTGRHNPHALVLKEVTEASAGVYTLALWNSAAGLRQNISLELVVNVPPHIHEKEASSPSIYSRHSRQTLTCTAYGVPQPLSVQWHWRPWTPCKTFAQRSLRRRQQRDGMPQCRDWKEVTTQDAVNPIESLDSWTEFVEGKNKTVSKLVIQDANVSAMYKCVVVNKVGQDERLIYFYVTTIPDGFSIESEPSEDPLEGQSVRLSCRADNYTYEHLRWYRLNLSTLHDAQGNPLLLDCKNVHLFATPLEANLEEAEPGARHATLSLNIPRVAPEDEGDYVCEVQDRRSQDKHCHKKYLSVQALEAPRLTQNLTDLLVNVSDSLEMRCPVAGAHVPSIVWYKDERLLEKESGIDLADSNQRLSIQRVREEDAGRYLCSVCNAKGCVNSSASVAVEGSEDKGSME

human VEGFR2 = biological target: T7, human VEGFR2 (Human, UniProt P35968 20-764, limits assumed); experiment: SPR (Biacore), 25 C
Sequence of human VEGFR2 (P35968 20-764 limits assumed): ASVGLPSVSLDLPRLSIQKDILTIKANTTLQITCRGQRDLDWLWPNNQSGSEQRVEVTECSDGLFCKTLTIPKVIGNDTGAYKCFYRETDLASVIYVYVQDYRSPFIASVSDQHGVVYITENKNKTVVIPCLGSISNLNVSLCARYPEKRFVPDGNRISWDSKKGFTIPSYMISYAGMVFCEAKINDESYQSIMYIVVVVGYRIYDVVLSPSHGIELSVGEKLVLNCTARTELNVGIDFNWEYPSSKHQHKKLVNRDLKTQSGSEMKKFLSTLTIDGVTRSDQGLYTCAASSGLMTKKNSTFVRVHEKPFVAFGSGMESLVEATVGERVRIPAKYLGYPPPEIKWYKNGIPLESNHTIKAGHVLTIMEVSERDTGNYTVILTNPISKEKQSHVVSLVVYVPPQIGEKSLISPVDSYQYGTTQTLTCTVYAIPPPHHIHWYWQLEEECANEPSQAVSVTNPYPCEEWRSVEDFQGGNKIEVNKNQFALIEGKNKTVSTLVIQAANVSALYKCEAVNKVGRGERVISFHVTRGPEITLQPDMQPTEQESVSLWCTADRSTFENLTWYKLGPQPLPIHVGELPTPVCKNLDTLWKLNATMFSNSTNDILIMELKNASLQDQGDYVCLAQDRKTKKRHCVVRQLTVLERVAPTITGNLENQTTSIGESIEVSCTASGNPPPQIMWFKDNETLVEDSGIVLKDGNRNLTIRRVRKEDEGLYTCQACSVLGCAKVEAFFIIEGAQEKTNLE
T7 construct: also called VEGFR2 Human

mouse VEGFR2 = biological target: T8, mouse VEGFR2 (Mouse, UniProt P35918 20-762, limits assumed); experiment: SPR (Biacore), 25 C
Sequence of mouse VEGFR2 (P35918 20-762 limits assumed): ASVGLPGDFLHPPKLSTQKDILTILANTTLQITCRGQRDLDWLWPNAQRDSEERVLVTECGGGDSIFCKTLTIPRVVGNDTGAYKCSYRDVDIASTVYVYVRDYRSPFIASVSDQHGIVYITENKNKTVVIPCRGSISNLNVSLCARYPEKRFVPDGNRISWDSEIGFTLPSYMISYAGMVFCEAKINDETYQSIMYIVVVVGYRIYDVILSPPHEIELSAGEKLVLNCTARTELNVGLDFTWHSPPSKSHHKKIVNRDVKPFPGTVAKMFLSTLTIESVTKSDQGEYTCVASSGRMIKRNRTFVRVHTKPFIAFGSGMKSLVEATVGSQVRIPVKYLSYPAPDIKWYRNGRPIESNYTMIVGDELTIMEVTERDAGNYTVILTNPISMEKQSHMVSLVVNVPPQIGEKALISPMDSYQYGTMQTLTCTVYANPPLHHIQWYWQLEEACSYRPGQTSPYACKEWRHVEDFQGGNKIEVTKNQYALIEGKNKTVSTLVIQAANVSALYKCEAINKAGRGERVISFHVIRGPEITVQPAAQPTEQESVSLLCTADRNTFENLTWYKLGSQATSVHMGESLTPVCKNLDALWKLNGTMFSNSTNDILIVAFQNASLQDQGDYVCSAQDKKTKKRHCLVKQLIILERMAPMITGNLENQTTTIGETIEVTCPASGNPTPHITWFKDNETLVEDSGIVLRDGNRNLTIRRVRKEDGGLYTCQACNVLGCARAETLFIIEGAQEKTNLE
T8 construct: also called VEGFR2 Mouse

[4] = biological target: T3, hVEGFR1-Fc (R&D 321-fl 050/cf); experiment: competition ELISA, coated hVEGFR1-Fc, competitor biotinylated hPLGF1 2 nM (Table 4a experiment)
T3 sequence (P17948 27-758): as the sequence (P17948 27-758 limits assumed) above

[5] = biological target: T3, hVEGFR1-Fc (R&D 321-fl 050/cf); experiment: competition ELISA, coated hVEGFR1-Fc, competitor biotinylated hPLGF1 4 nM (Table 4b experiment)
[6] = biological target: T3, hVEGFR1-Fc (R&D 321-fl 050/cf); experiment: competition ELISA, coated hVEGFR1-Fc, competitor biotinylated hVEGFA-165 2 nM (Table 4a experiment)

B1: Antibody II (antibody, human IgG4 S228P, kappa, F234A L235A)
heavy: QAQVVESGGGVVQSGRSLRLSCAASGFAFSSYGMHWVRQAPGKGLEWVAVIWYDGSNKYYADSVRGRFTISRDNSENTLYLQMNSLRAEDTAVYYCARDHYGSGVHHYFYYGLDVWGQGTTVTVSSASTKGPSVFPLAPCSRSTSESTAALGCLVKDYFPEPVTVSWNSGALTSGVHTFPAVLQSSGLYSLSSVVTVPSSSLGTKTYTCNVDHKPSNTKVDKRV[human IgG4 Fc with S228P F234A L235A (EU numbers) not shown]
light: [about 200 residues not shown]
notes: also called Ab II; Antibody 2
- Kd (cynomolgus VEGFR1): 0.554 nM
- koff (cynomolgus VEGFR1): 8.3e-05 s⁻¹
- Kd [1]: 0.74 nM
- koff [1]: 0.00024 s⁻¹
- Kd [2]: ≤ 0.042 nM
- koff [2]: 1.42e-05 s⁻¹
- IC50 [3]: 1.02 nM
- binding result (human VEGFR3): no binding (tested: ~200 nM)
- binding result (mouse VEGFR1): no binding (tested: ~200 nM)
- binding result (mouse VEGFR3): no binding (tested: ~200 nM)
- binding result (human VEGFR2): no binding (tested: ~200 nM)
- binding result (mouse VEGFR2): no binding (tested: ~200 nM)
- IC50 [4]: 0.43 nM
- IC50 [5]: 0.31 nM
- IC50 [6]: 0.14 nM
